# Test results reported in the RNAGym collection of RNA variant scans (doi:10.1073/pnas.2313332121).
# Variants at the floor of the assay are shown more often than the library holds them.
# B1: TPR 5TU (parent)
# chain: GGAUCUUCUCGAUCUAACAAAAAAGACAAAUCUGCCACAAAGCUUGAGAGCAUCUUCGGAUGCAGAGGCGGCAGCCUUCGGUGGCGCGAUAGCGCCAACGUUCUCAACUAUGACACGCAAAACGCGUGCUCCGUUGAAUGGAGUUUAUCAUG
# Variants of: B1
# Test: polymerase ribozyme fitness, log enrichment relative to wild type (log ratio); higher = more active; in vitro selection for triplet polymerase activity
# Outline: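 PCR was used to build mutant libraries for each subunit of a heterodimeric triplet polymerase ribozyme, which were then transcribed. A single in vitro selection round, in triplicate, used a frozen incubation at −7 °C and recovered extended constructs by gel excision, streptavidin beads and RT-PCR. Fitness is the logarithm of genotype enrichment relative to wild-type enrichment, averaged over replicates with inverse-variance weights. The logarithm is base 2, and after Illumina sequencing only genotypes with ≥10 input reads and ≥1 read per output were kept.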
row,Variant,polymerase ribozyme fitness (log ratio)
1,A12U G42C C43A A66U G136U U144C U145G,≤ -4.2
2,U13A A24U G58C G88U C105U U148A A150C,≤ -4.2
3,A12U C43A C54U U55A G94U A98C A120G,≤ -4.2
4,U13G A16G A21G C51G G74A C93U U111G C114A G126A,≤ -4.2
5,U13C A19U G25A U45G C57A U82G C93A C95A U145C,≤ -4.2
6,A12G U78G A89G C95U U109C U145C A150G,≤ -4.2
7,A12G U53A,-0.69
8,A12U G58C G62U U127C G140A,≤ -4.2
9,U13G A16G A22U U44A U55A G71A G143U,≤ -4.2
10,U13C A16U G84A U109G,-1.88
11,A12U C87A U90C A113G C131U,≤ -4.2
12,A12U A49C G74A G86A A89U G92C C93A C114U A147C,≤ -4.2
13,U13A G94C,-1.19
14,U13C C93A G152A,≤ -4.2
15,U13C C35A A91U C95A U104C C131G,≤ -4.2
16,U13C U31A C54U C57U C87U C93A C99A U111G,≤ -4.2
17,A12G C96A U134C A138G G141C,-3.97
18,U13A A17U C54U C75G C87G U104C A113U,≤ -4.2
19,A12U C36G G86A A110C U139A,-4.11
20,U13A A22U U53A G62C A64U U90A A91C C103A A106G C108U G126C,≤ -4.2
21,A12G U13C G34A U55G U90C A91C,≤ -4.2
22,U13A C32U A41C G88A A91G A97G G126U G141U,≤ -4.2
23,U13C C93G C99A U127C,≤ -4.2
24,A12G C116G,0.204

row,Variant,polymerase ribozyme fitness (log ratio)
1,A12U U15G C57A G62U G70C A89C C93A C123U G141A U144C,≤ -4.2
2,A12U G25C C35U U77G G94U,≤ -4.2
3,A12U A66C C87U C118A,≤ -4.2
4,U13G A17U A24C A28C C85G G86U C96U U135A,≤ -4.2
5,U13C A91U A120U,-3.86
6,A12U C27G G34C G86C G140U G141A,≤ -4.2
7,A12U C18U U44C G59A G140C G141C C149G,≤ -4.2
8,U13C G46A C57G C76G G83C,≤ -4.2
9,A12G U31G A40C A52U U56A C93A U146G,≤ -4.2
10,A12U G34C G62C A73U C96U A107G C116G A147G,≤ -4.2
11,A12U U45A C87U,≤ -4.2
12,A12U A22C G88C A122U G143C G152C,≤ -4.2
13,A12U U13C G25A G67C G88C A97U U111C,≤ -4.2
14,A12G G70A C118U,-3.56
15,A12G G92C A107G G133U,≤ -4.2
16,A12G G50A A52G G83C A91C,≤ -4.2
17,A12U C35G C36G U55G G86U,≤ -4.2
18,U13C U15C C75A C79A G86U U90A A115G,≤ -4.2
19,U13C A22G U31C C43A C85G U145C,≤ -4.2
20,A12U A91U A120G U146A,-4.18
21,U13A A39U U45A G59C C72U G94C U101A A142C,≤ -4.2
22,A12U U45G A49C C57A C87A G92A A110U,≤ -4.2
23,A12U C118U A119C G136A G143C,-3.19
24,A12U C96U,-0.566

row,Variant,polymerase ribozyme fitness (log ratio)
1,A12U A30G C87A,≤ -4.2
2,A12U A24U A66C C87G G88A C116U G124U,≤ -4.2
3,A12G G48A G71A G86A G126U C131A G140U C149A A150G,≤ -4.2
4,U13A C14U A60C C93G C103G A122G U130A C131A,≤ -4.2
5,A12U A19G C57U A60U C87A G124U U134A A137U,≤ -4.2
6,A12U U13A C85A C93G,≤ -4.2
7,U13C C32G U55A G68C G92U C93U U134C,≤ -4.2
8,A12U C14A C85G U145C,-3.7
9,A12U G88C A97G C118A A150U,≤ -4.2
10,U13C A49C C93A,≤ -4.2
11,A12G G50A G74A C96U G128A,≤ -4.2
12,U13A G42U U44G U55G C85A C87A C95A G100A,≤ -4.2
13,U13A C38G C54A C76A C93G,≤ -4.2
14,A12U A41U G68U G71C C76U G84C C105G,≤ -4.2
15,A12G C93A,-2.26
16,A12G C87A C96U U135C,≤ -4.2
17,A12G U55A G70A C76G C85G G88A C149G,≤ -4.2
18,A12U U31G A39G U44G C54G C93U C105G C114A,≤ -4.2
19,A12G G68A G83A C116U,≤ -4.2
20,A12G G46C A60C C85G,≤ -4.2
21,A12U A23U C69U G83A,≤ -4.2
22,A12U C85U C93A G133U,≤ -4.2
23,U13A A73G C87G,≤ -4.2
24,A12U C85A C93G A110U C116U U134G,≤ -4.2

row,Variant,polymerase ribozyme fitness (log ratio)
1,U13A C14A A49G G50A A113U,≤ -4.2
2,U13C U45G G81A C85U C118U G126A,≤ -4.2
3,U13A A21C U56A A60G G92U U102A C114U C123U,-3.84
4,A12U A24C G48C G58A A91C C95A,≤ -4.2
5,U13C U56G A115G,-2.32
6,U13G A16C G50A C85A C103G U151G,≤ -4.2
7,A12U C14U C43G C96U A142U,≤ -4.2
8,A12U A19U A23C A29G C75G G84U U139A,≤ -4.2
9,A12U A20U C85G C103G C123U G141C,≤ -4.2
10,A12U A24U A28C G42U A60U C79G A91U G143A,≤ -4.2
11,A12U A28G C43U G59A A60G,≤ -4.2
12,A12U U111C,-4
13,U13A G50C A52U U53A U55A A60G G70A U111G C125A A142C,≤ -4.2
14,U13A A39U C54G C79U G81U G94U U139C G140U,≤ -4.2
15,U13C A26U U55A G68A G80A G84U U102C U148C,≤ -4.2
16,U13C A22C C96G U139G A142U U145A A150U,≤ -4.2
17,U13A G58U A64U C93A C105U A142G,≤ -4.2
18,A12U A23G G42C A60G G84U A107G U109G,≤ -4.2
19,A12U A17C A22C A142C,-2.44
20,U13A C35U A41G C63U G80U C87A C103A G124U U148G,≤ -4.2
21,U13A U15G C35A A66G A98U C108G U111A C129U,≤ -4.2
22,A12G C85U C129A U151C,≤ -4.2
23,U13G A17C A21U C36A A89U A98G U144A,≤ -4.2
24,A12U A40C G92A C118G,-3.87

row,Variant,polymerase ribozyme fitness (log ratio)
1,U13A C14A A47U G83U G128U,≤ -4.2
2,A12U C36G G92U C125U C131U,≤ -4.2
3,A12U A30C C87G C96U A106C C116G U130G G136C,≤ -4.2
4,A12U C54A C95U,-1.84
5,A12G C116G G126U,1.17
6,U13C C54G C95G,-3.76
7,A12G G25A A26G A40U C57U C76A C93U C131A,≤ -4.2
8,U13C A21C,0.934
9,U13C C87G,≤ -4.2
10,A12G C99G,-0.551
11,U13C A30G A73C G84U A89U,≤ -4.2
12,A12U C51A U77G A147C,≤ -4.2
13,U13A C69A A120C,-2.74
14,A12U C93A,-1.26
15,U13C U44A U55A G59U G84A A150C,≤ -4.2
16,U13A C93G A97U G143A,≤ -4.2
17,U13C A21G A24G C32U C72U C76G C85U C123G,≤ -4.2
18,A12G U33C A73G U130G,-3.56
19,A12U A17U C18U G34A A64G C87G,≤ -4.2
20,A12U A28C G50C C57A C116U,≤ -4.2
21,U13A A41G C85G A147G,-2.67
22,U13A A23G C27U A28C C54U C85U C93U A115C C116G A121G A150C,-3.82
23,A12U U53G C69G C85U A107U,≤ -4.2
24,A12G G25C A66C C93G C129A,≤ -4.2

row,Variant,polymerase ribozyme fitness (log ratio)
1,A12G U56G C96U A120U,-0.669
2,A12G U55A U61G C125G,-3.62
3,U13A A40G G68A,≤ -4.2
4,A12U C36G G67A G81U G83C,≤ -4.2
5,A12U C18G G92C,-2.01
6,U13A G48U U56A G84A,-1.28
7,A12U A26C C35A U55C G59C C76A C93A U111C A138G U144A,≤ -4.2
8,U13A A21C A40C C43U G67A G100C A142U A147G,≤ -4.2
9,A12U G83C C96U A107C U109A C116A A142C,≤ -4.2
10,A12U G80U G84C A97G U134C,≤ -4.2
11,A12U A26U G46C C57U C93U C125G U127G A138G,≤ -4.2
12,U13A A98U U148G,≤ -4.2
13,A12U A26C G50A G67C C85A C96U G143C,≤ -4.2
14,A12U C14G C87G A97G G143U,≤ -4.2
15,A12U A52C U53A C57U G92U G124U U148A,≤ -4.2
16,A12U U53A C79G U90C A97C U139A U148C G152U,≤ -4.2
17,U13C A29U U55G,≤ -4.2
18,U13A G50A U55A A89C,-3.57
19,A12U A17U G50A U61A,≤ -4.2
20,U13A U78G A91U U134A U146G,≤ -4.2
21,A12G G92C G133U,-3.59
22,A12G U90G C93A G112A,≤ -4.2
23,A12G U77A C96A A98G,≤ -4.2
24,U13C C14G C57A U101G,-1.23

row,Variant,polymerase ribozyme fitness (log ratio)
1,A12U G50A U61C C87G C131G,≤ -4.2
2,U13A G25U C95U C123G C149A,≤ -4.2
3,U13A A16G A28G G48A C51U U135A U148C,≤ -4.2
4,U13C A20C A29C C38A C116G G124C C131U,≤ -4.2
5,U13A A24C G68A C96G,≤ -4.2
6,A12G G59A A73G A91G,-2.71
7,A12G U31G C51G U77G U82A C85A,≤ -4.2
8,U13C A39C U56A C95U G124A,-3.63
9,A12G G70A C85U C105G C116A,≤ -4.2
10,U13A C35U G42A C69G C93G,≤ -4.2
11,A12U A16U C27A C76U G92U C129A,≤ -4.2
12,U13C C38U G86A G124C,-1.98
13,U13C A22U C76G,≤ -4.2
14,U13A G50U C69G U78C A89U A120G,≤ -4.2
15,A12U A49C G81C,≤ -4.2
16,U13A A20C A30C A49U C72U A91U,≤ -4.2
17,A12U C63A A89C C95G C114U C118U,≤ -4.2
18,U13A A22U A28U C36G A60U C85U C96U A115G,≤ -4.2
19,U13C C18U,0.127
20,A12U U31G A40C A49C A60G C93U,≤ -4.2
21,A12U C18G C32G G50C U53C C85A C103A,≤ -4.2
22,A12U U15G C27U G59U G86U U135A A147G,≤ -4.2
23,U13G A16U A26U U55A C87U,≤ -4.2
